Experimental data: the supplement of paper PMC3724861
The list shows a part of the results.

Test system: T1, Caupolican (Caup) homeodomain DNA-binding domain
T1 sequence: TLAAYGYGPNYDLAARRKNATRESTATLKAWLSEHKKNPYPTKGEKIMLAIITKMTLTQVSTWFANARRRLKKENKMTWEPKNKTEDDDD
Assay: PBM E-score (8-mer, recovered from the published 9-mer minima) (E-score (dimensionless, -0.5 to 0.5)); Drosophila protein; higher = stronger relative binding preference, active = 0.31 or more
Procedure, shortened: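 An enrichment score, with higher meaning stronger, expresses relative binding preference for each short DNA word. The protein used was Caup's homeodomain DNA-binding domain (residues 214-303), produced by in vitro transcription and translation and tested at 100 nM on custom-designed protein binding microarrays. The 8-mer values were recovered from published 9-mer scores, each equal to the lower of its two constituent 8-mer scores.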

Row | Sequence | PBM E-score
1 | CGTTATCA | inactive: 0.0918
2 | AACCCCCT | inactive: -0.113
3 | ATAGGTTC | inactive: 0.027
4 | GTTCGAAA | inactive: 0.0496
5 | AAGTTTTA | inactive: 0.0992
6 | CCGCCATA | inactive: -0.0109
7 | GCACACCA | inactive: -0.0961
8 | ATTCTTCC | inactive: -0.0716
9 | CCCACTCC | inactive: -0.204
10 | AAGCCACA | inactive: -0.0703
11 | CATCTCCG | inactive: -0.0463
12 | TCGCGTCA | inactive: 0.0288
13 | GTCCATTA | inactive: 0.13
14 | CCCGGAGC | inactive: -0.204
15 | GCACTATA | inactive: 0.0436
16 | AACGACCC | inactive: -0.213
17 | ATGTCTGC | inactive: 0.1
18 | AACAGGTC | inactive: 0.149
19 | TGACAGAA | inactive: 0.143
20 | ATGAAAAC | inactive: 0.131
21 | ACTACACA | active: ≥ 0.357
22 | CAGATGGA | inactive: 0.0599
23 | CGCGATAA | inactive: 0.0188
24 | ATGCATTG | inactive: 0.136
25 | AGGGGCCG | inactive: -0.338

Row | Sequence | PBM E-score
26 | CTCCTAAG | inactive: -0.0752
27 | GGGTGATA | inactive: 0.00682
28 | CACAGACA | inactive: 0.161
29 | CCGATAAA | inactive: 0.0677
30 | GACCATCC | inactive: -0.0648
31 | AAACCTCT | inactive: -0.0627
32 | CGAGGTCC | inactive: -0.201
33 | ATTCCATG | inactive: 0.123
34 | ATTACGCA | inactive: 0.0765
35 | CTATGCCC | inactive: -0.184
36 | AAACTGGG | inactive: -0.152
37 | AGAGTTCC | inactive: -0.111
38 | ACCTTGTC | inactive: 0.306
39 | AGAGTCCG | inactive: -0.106
40 | ACTCCGTG | inactive: -0.0339
41 | GATATACA | inactive: 0.263
42 | CCTTGGTA | inactive: 0.0171
43 | CATTGAGG | inactive: -0.00528
44 | CACGTCGA | inactive: 0.0163
45 | AGGTAGGC | inactive: -0.116
46 | AGCACTAA | inactive: -0.00029
47 | CTTTGGTC | inactive: -0.0812
48 | AACGCTAA | inactive: -0.0108
49 | CGGGATTC | inactive: 0.0153
50 | ATCCATGG | inactive: -0.0915

Row | Sequence | PBM E-score
51 | CTAAATCC | inactive: -0.102
52 | GCTTGTAA | active: 0.384
53 | AGTTCTCC | inactive: -0.0986
54 | CCTATAGA | inactive: -0.0341
55 | CCCCGAAG | inactive: -0.219
56 | AAGCTGAT | inactive: 0.0735
57 | GAGATCAA | inactive: 0.0168
58 | CTCACAAG | inactive: 0.0655
59 | CGTATATA | inactive: 0.148
60 | CCGGGACC | inactive: -0.275
61 | AAGACCAT | inactive: -0.00667
62 | GAAGGGAC | inactive: -0.136
63 | ATGTTTCA | inactive: 0.243
64 | GACAGGTA | inactive: 0.183
65 | AGGGAGAG | inactive: -0.181
66 | GGATCGCC | inactive: -0.201
67 | AAAGACGA | ≥ 0.0966
68 | GGATCAAA | inactive: 0.0394
69 | AATTTTCG | inactive: 0.012
70 | AGGACAAG | inactive: 0.254
71 | GGCTACAC | inactive: 0.125
72 | ACAAGTAC | active: 0.35
73 | CACAGCAC | inactive: 0.0363
74 | AAAGTGTG | inactive: 0.119
75 | AAAACTCC | inactive: -0.138

Row | Sequence | PBM E-score
76 | CCAACACC | inactive: -0.034
77 | GTCGTAAA | inactive: 0.16
78 | CGTATAGC | inactive: -0.0127
79 | AGAACAAT | inactive: 0.21
80 | CACTACTC | inactive: 0.0638
81 | ACCAAAGA | inactive: 0.0532
82 | TAGCAATA | inactive: 0.118
83 | ATTGGGAG | inactive: -0.0672
84 | ATGCACTG | inactive: 0.0844
85 | AATATTTA | inactive: 0.179
86 | GCCAAGGC | inactive: -0.29
87 | CAGTGTCG | inactive: 0.131
88 | CTAAAAAG | inactive: -0.0645
89 | TCCACACA | inactive: 0.0566
90 | AGATCGAC | inactive: 0.0993
91 | AAATTCGA | inactive: 0.00593
92 | GGCATTGA | inactive: -0.0356
93 | CGAACGCC | inactive: -0.163
94 | AGCGGAAT | inactive: -0.0438
95 | GATCATTA | ≥ 0.154
96 | AGCTGGGC | inactive: -0.237
97 | GCAGTCAA | inactive: 0.0352
98 | CCAAATGA | inactive: 0.0802
99 | CACGATAG | inactive: 0.0391
100 | AGTTACAG | inactive: 0.189

Row | Sequence | PBM E-score
101 | ACACGGTC | inactive: 0.219
102 | AAATGTGA | inactive: 0.18
103 | CCTTGTCA | active: 0.342
104 | AGCGCTCA | inactive: -0.198
105 | AATGACGA | inactive: 0.155
106 | AATATTGC | inactive: 0.153
107 | CACACAGC | inactive: -0.0631
108 | CCTGAATA | inactive: 0.0561
109 | CATAATAA | inactive: 0.196
110 | AATTGCGT | inactive: -0.0149
111 | ACTCTCAC | inactive: -0.0203
112 | AGATACTG | inactive: 0.0481
113 | CAGAGGCA | inactive: -0.086
114 | AGACGGAT | inactive: 0.0063
115 | AAGCCGCT | inactive: -0.189
116 | ATAGAAAA | ≥ 0.147
117 | ACCGTATA | inactive: 0.0588
118 | ATATGTAC | active: 0.387
119 | CGCGCACC | ≥ -0.0925
120 | AGAGCAGA | inactive: 0.00149
121 | GAACGCGA | ≥ 0.0514
122 | CGAATTCG | inactive: -0.111
123 | GCATATCC | inactive: 0.0416
124 | CGTCCAGA | inactive: -0.161
125 | TACTACCA | inactive: 0.138

Row | Sequence | PBM E-score
126 | CAAAGATA | inactive: 0.0292
127 | ATCGGATC | inactive: 0.0462
128 | CAATCCAA | inactive: 0.0246
129 | AGGCGTTA | inactive: -0.0569
130 | ACGTGTAC | active: 0.367
131 | CTCGCCGA | inactive: -0.183
132 | AGTATAAT | inactive: 0.159
133 | GACTACTC | inactive: 0.00883
134 | CCGTGCAG | inactive: -0.124
135 | GAAGCACC | inactive: -0.161
136 | CCGGACAC | inactive: 0.0922
137 | ATCTTGCA | ≥ 0.0894
138 | TGGCCCCA | inactive: -0.226
139 | AGAGAACC | inactive: -0.138
140 | ACTTGGGC | inactive: -0.214
141 | CCTAAGAG | inactive: -0.047
142 | GAATTCCA | inactive: 0.0917
143 | AAATCTTC | inactive: -0.0129
144 | GATAGAAA | inactive: 0.0286
145 | TCCCAGGA | inactive: -0.203
146 | CTAGATAG | inactive: 0.0481
147 | ATACGGAA | inactive: 0.0863
148 | ACCTGCCT | inactive: -0.114
149 | AGTCACGC | inactive: -0.0732
150 | CCGATCGA | inactive: -0.133

Row | Sequence | PBM E-score
151 | GGCCCATA | inactive: -0.172
152 | GGACGCTA | inactive: -0.163
153 | AAGCTTGC | inactive: -0.0998
154 | CCGTAGAA | inactive: -0.0624
155 | ACCGCGAC | inactive: -0.0257
156 | GCTCAAGC | inactive: -0.211
157 | AAAAATAA | inactive: 0.0486
158 | TTAAGAAA | inactive: -0.034
159 | CCCGGTCC | inactive: -0.297
160 | AGAAAATA | inactive: 0.0566
161 | CACGTGGG | inactive: -0.145
162 | ATTCCCGG | inactive: -0.00757
163 | ACAGCGAC | inactive: 0.0156
164 | CGGCAGTA | inactive: -0.147
165 | AGGTAGAG | inactive: -0.0323
166 | CGGCTATC | inactive: -0.134
167 | CTGGCCAA | inactive: -0.112
168 | AAGGGGCC | inactive: -0.208
169 | ACGGTTGC | inactive: -0.0605
170 | GTTATCGA | inactive: 0.0862
171 | ATGCGCGC | inactive: -0.0331
172 | ACTTAAAA | inactive: 0.034
173 | CCTTGGCA | inactive: -0.104
174 | GTATCAAA | inactive: 0.147
175 | CACATTCC | inactive: 0.0403

Row | Sequence | PBM E-score
176 | CCCATAGG | inactive: -0.163
177 | ACGGGAGT | ≥ 0.00308
178 | CCCTGCAA | inactive: -0.0947
179 | CTTAACAC | inactive: 0.226
180 | AAGCCCTA | ≥ -0.0227
181 | CAAGCGTA | inactive: 0.104
182 | CACCTCGC | inactive: -0.185
183 | AGTTATTG | inactive: 0.11
184 | GGTGGTCA | inactive: -0.0974
185 | ACTCCACC | inactive: 0.00423
186 | ATCTTTTC | inactive: 0.122
187 | AACTATTC | inactive: 0.0523
188 | AGGCAGAG | inactive: -0.123
189 | AGGAGCCG | inactive: -0.281
190 | CCCTATTC | inactive: -0.0466
191 | CCCGCTGA | inactive: -0.187
192 | ATTCCCGC | inactive: -0.054
193 | ACATAGCC | inactive: 0.219
194 | AGAGAACA | inactive: 0.194
195 | CCACTGAA | inactive: -0.0774
196 | CATTAGCC | inactive: -0.0809
197 | AGCCGACC | inactive: -0.169
198 | CTTTTAGC | inactive: -0.00461
199 | TCACCAAA | inactive: 0.087
200 | ACGAGATG | inactive: 0.063

Row | Sequence | PBM E-score
201 | GCTCTCTA | inactive: -0.085
202 | ATGCGATG | inactive: 0.0107
203 | GCGTAAAA | inactive: 0.0211
204 | CGTTGAAA | inactive: -0.083
205 | CTGGCCAG | inactive: -0.181
206 | AACTCTAA | inactive: 0.0183
207 | GGATGATA | inactive: 0.0469
208 | GCGAGCAA | inactive: -0.0626
209 | CTCTAAAC | inactive: 0.0272
210 | CTGCCACA | inactive: -0.0532
211 | AAGCCTGT | inactive: 0.0816
212 | CGCCGCAC | ≥ -0.0469
213 | CGACTGTC | inactive: 0.00328
214 | CGCAAATC | inactive: 0.00809
215 | AGCACAAG | inactive: 0.0143
216 | ACGCTCAA | inactive: -0.00298
217 | CGCGCCCG | inactive: -0.298
218 | AACCGGTC | inactive: -0.0609
219 | CTTGAAAA | inactive: 0.018
220 | AATTTCCC | inactive: 0.0249
221 | ATCCCCTA | inactive: -0.106
222 | AGACCGGA | inactive: -0.0653
223 | CGAGAGCA | inactive: -0.0181
224 | ATTTCCGC | inactive: -0.0418
